{
  "source": "paper PMC5836133",
  "note": "Some of the results follow. At the low end of the ranking the order means little.",
  "data": [
    {"system": "T1, GST-NbGlk1(82-244)", "T1 sequence": "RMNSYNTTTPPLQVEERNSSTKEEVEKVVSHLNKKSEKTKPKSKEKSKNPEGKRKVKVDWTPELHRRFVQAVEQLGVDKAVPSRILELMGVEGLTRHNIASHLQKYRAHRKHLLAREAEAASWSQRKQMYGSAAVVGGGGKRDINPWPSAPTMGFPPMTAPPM", "assay": "protein-binding microarray;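 also: rank-based score ranging −0.5 to +0.5 with E above 0.45 taken as significant binding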", "details": "NbGlk1 is a Golden2-like transcription factor of Nicotiana benthamiana; high values mean tight binding; most listed sequences are background and not binding sites; double strand, one strand shown", "units": {"binding signal": "E-score"}, "values": [
      {"sequence": "AACTACTC", "binding signal": 0.0626},
      {"sequence": "ATAGCACC", "binding signal": -0.138},
      {"sequence": "AACAACGT", "binding signal": 0.0457},
      {"sequence": "ATAGGGGG", "binding signal": -0.229},
      {"sequence": "ATCGGTAC", "binding signal": 0.0488},
      {"sequence": "ACCCATCT", "binding signal": -0.0776},
      {"sequence": "ACGCTAGA", "binding signal": 0.0372},
      {"sequence": "ACCGCCAA", "binding signal": -0.0686},
      {"sequence": "ACCTGAAC", "binding signal": -0.2},
      {"sequence": "CAGATTGC", "binding signal": 0.475},
      {"sequence": "ACCTTCAC", "binding signal": -0.0968},
      {"sequence": "ATATATTC", "binding signal": 0.281},
      {"sequence": "ATGGATTC", "binding signal": 0.425},
      {"sequence": "AGGCCGAA", "binding signal": -0.155},
      {"sequence": "ATTGTGCA", "binding signal": 0.189},
      {"sequence": "ATCATTAA", "binding signal": 0.138},
      {"sequence": "ACGTATTG", "binding signal": 0.179},
      {"sequence": "ACGGCGGA", "binding signal": -0.0789},
      {"sequence": "ATTATCGC", "binding signal": 0.111},
      {"sequence": "ATAACCGG", "binding signal": -0.223},
      {"sequence": "ATAATTCG", "binding signal": -0.0509},
      {"sequence": "ATAGAGGC", "binding signal": -0.118},
      {"sequence": "ATGGTACC", "binding signal": -0.0488},
      {"sequence": "ACCAGATA", "binding signal": 0.268},
      {"sequence": "AGAGGCGG", "binding signal": -0.186},
      {"sequence": "AGATCTCG", "binding signal": 0.431},
      {"sequence": "AGTGGTTA", "binding signal": -0.0373},
      {"sequence": "ATTGTACA", "binding signal": 0.0744},
      {"sequence": "AACCAGTT", "binding signal": -0.177},
      {"sequence": "ACTCGTAC", "binding signal": -0.158},
      {"sequence": "AATAACTC", "binding signal": 0.0143},
      {"sequence": "ATCACGAA", "binding signal": 0.216},
      {"sequence": "ATTAAAAT", "binding signal": 0.146},
      {"sequence": "AGTCTCAG", "binding signal": -0.214},
      {"sequence": "ATCCGTTC", "binding signal": 0.161},
      {"sequence": "ATACCACC", "binding signal": 0.0912},
      {"sequence": "ACCCGGCA", "binding signal": -0.238},
      {"sequence": "ACGAAAAT", "binding signal": 0.272},
      {"sequence": "ACAAGAGG", "binding signal": -0.132},
      {"sequence": "ACCCACCG", "binding signal": -0.0966},
      {"sequence": "ACTACCCC", "binding signal": -0.202},
      {"sequence": "ACCTCTGA", "binding signal": 0.00915},
      {"sequence": "ATACCGGA", "binding signal": 0.000813},
      {"sequence": "AACTCAGG", "binding signal": 0.0375},
      {"sequence": "ATAGGCTG", "binding signal": -0.135},
      {"sequence": "ATAAAGTC", "binding signal": -0.169},
      {"sequence": "AGAGTGCA", "binding signal": -0.0203},
      {"sequence": "AATTAGAT", "binding signal": 0.224},
      {"sequence": "AATGCCCG", "binding signal": -0.158},
      {"sequence": "AAGATAAT", "binding signal": 0.221},
      {"sequence": "AAAAATAC", "binding signal": 0.0995},
      {"sequence": "CAGAGGGA", "binding signal": -0.0455},
      {"sequence": "AGGTTGCA", "binding signal": -0.15},
      {"sequence": "ACTAACGC", "binding signal": -0.137},
      {"sequence": "ACGGGTTG", "binding signal": -0.17},
      {"sequence": "ACTCTTAC", "binding signal": 0.0157},
      {"sequence": "ATTCTCCC", "binding signal": 0.255},
      {"sequence": "AACAATTA", "binding signal": 0.128},
      {"sequence": "AGGTTGTG", "binding signal": -0.0975},
      {"sequence": "CAGAGCTA", "binding signal": -0.0747},
      {"sequence": "ACGGTACT", "binding signal": -0.0728},
      {"sequence": "ACACAACC", "binding signal": -0.0794},
      {"sequence": "ATCCCGGC", "binding signal": 0.00281},
      {"sequence": "AGTGATAC", "binding signal": 0.0957},
      {"sequence": "ACTTTGTG", "binding signal": -0.0662},
      {"sequence": "ACGTTCGA", "binding signal": -0.0635},
      {"sequence": "ACTTCACA", "binding signal": 0.102},
      {"sequence": "AGTAGAGC", "binding signal": -0.157},
      {"sequence": "ACTAAAGA", "binding signal": 0.103},
      {"sequence": "AGGTAAAC", "binding signal": 0.0486},
      {"sequence": "CAACTAAG", "binding signal": -0.224},
      {"sequence": "AAGTTCCG", "binding signal": -0.058},
      {"sequence": "CACCTTGC", "binding signal": -0.206},
      {"sequence": "AGCATATC", "binding signal": 0.352},
      {"sequence": "AGAGCGGC", "binding signal": -0.271},
      {"sequence": "ATGGTAAC", "binding signal": -0.115},
      {"sequence": "ACTCGTCT", "binding signal": -0.101},
      {"sequence": "AACCTGAC", "binding signal": -0.216},
      {"sequence": "AAACGGAT", "binding signal": 0.245},
      {"sequence": "AGAACCAG", "binding signal": -0.159},
      {"sequence": "ACGCCCAG", "binding signal": -0.215},
      {"sequence": "ATTTCCCA", "binding signal": 0.329},
      {"sequence": "ATATGGTC", "binding signal": 0.102},
      {"sequence": "AGCGCAAC", "binding signal": -0.0604},
      {"sequence": "AAAAGGAT", "binding signal": 0.151},
      {"sequence": "AACTGCGA", "binding signal": -0.00729}
    ]}
  ]
}
